This passage reports binding results from publication PMC7311467.

By UniProt entry, the sequences of proteins in these tests, tags left out.
UniProt O60934: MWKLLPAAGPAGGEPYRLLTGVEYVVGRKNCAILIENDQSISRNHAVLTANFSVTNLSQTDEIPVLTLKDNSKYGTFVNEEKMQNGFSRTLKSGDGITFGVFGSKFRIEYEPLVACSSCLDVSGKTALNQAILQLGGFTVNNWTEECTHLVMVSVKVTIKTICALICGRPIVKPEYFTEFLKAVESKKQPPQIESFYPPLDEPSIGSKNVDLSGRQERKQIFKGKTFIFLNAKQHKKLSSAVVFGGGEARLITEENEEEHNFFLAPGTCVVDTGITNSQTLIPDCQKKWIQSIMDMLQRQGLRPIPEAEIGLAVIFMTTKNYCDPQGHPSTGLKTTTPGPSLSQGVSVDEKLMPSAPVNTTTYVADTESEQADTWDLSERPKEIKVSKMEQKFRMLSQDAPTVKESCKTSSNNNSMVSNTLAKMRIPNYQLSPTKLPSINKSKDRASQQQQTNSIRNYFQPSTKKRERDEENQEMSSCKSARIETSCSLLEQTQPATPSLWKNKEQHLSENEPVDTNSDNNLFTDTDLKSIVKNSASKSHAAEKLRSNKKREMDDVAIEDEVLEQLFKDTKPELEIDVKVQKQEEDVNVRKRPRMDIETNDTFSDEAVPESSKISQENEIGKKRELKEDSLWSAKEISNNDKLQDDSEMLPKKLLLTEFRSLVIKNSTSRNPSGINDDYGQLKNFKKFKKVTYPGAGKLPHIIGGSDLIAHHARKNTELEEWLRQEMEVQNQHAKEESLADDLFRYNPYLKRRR

Assay [1] concerns the target FLAG-hSSB1 (human single-stranded DNA-binding protein 1), wild type (human) (UniProt Q9BQ15). The assay can be described thus: co-IP; HEK293T transfected with FLAG-hSSB1 plasmids (with HA-SUMO3 in Fig. 5e), with or without 100 μM etoposide for 24 h, ML-792 at the indicated concentrations in Fig. 5e; anti-FLAG IP, western blot for NBS1.
The target in a further assay is T1, FLAG-hSSB1-K79R (human) (UniProt Q9BQ15).
T1 sequence: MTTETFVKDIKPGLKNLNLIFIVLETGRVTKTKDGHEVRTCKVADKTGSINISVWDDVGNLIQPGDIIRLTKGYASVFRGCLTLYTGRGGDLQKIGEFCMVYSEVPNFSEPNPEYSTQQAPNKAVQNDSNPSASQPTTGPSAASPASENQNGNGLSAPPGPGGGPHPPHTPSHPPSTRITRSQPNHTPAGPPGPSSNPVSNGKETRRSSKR
The description is as above.

The next assay addresses T2, FLAG-hSSB1-K94R (human) (UniProt Q9BQ15).
T2 sequence: T1 sequence with R79K, K94R
The description is as above.

The target of assay [2] is hSSB1, endogenous (human (endogenous in HEK293T)) (UniProt Q9BQ15). The assay can be described thus: co-IP; endogenous proteins: HEK293T RIPA lysate, anti-hSSB1 antibody (IgG as control) 2 h at 4 °C, protein A/G-agarose overnight, four washes with RIPA, western blot. In general terms: Immunoblotting shows a protein as a band on a membrane.

Positions count from the first letter of the chain named. Results are given in words; binding and its absence hold for the method and conditions named. In cells and extracts the contact can be indirect. Some entries that bind do so weakly or less than the wild type. For some of these results: Where a sequence is shown, tags or fusion partners need not be part of it.

For the molecule NBS1 (from UniProt O60934 1-754), the binding result (in assay [1]; with FLAG-hSSB1-K79R (human); in the assay with FLAG-hSSB1-K94R (human)) was “binds” throughout.

B1: SENP2, endogenous (enzyme, UniProt Q9HC62 1-589)
chain: MYRWLVRILGTIFRFCDRSVPPARALLKRRRSDSTLFSTVDTDEIPAKRPRLDCFIHQVKNSLYNAASLFGFPFQLTTKPMVTSACNGTRNVAPSGEVFSNSSSCELTGSGSWNNMLKLGNKSPNGISDYPKIRVTVTRDQPRRVLPSFGFTLNSEGCNRRPGGRRHSKGNPESSLMWKPQEQAVTEMISEESGKGLRRPHCTVEEGVQKEEREKYRKLLERLKESGHGNSVCPVTSNYHSSQRSQMDTLKTKGWGEEQNHGVKTTQFVPKQYRLVETRGPLCSLRSEKRCSKGKITDTETMVGIRFENESRRGYQLEPDLSEEVSARLRLGSGSNGLLRRKVSIIETKEKNCSGKERDRRTDDLLELTEDMEKEISNALGHGPQDEILSSAFKLRITRGDIQTLKNYHWLNDEVINFYMNLLVERNKKQGYPALHVFSTFFYPKLKSGGYQAVKRWTKGVNLFEQEIILVPIHRKVHWSLVVIDLRKKCLKYLDSMGQKGHRICEILLQYLQDESKTKRNSDLNLLEWTHHSMKPHEIPQQLNGSDCGMFTCKYADYISRDKPITFTQHQMPLFRKKMVWEILHQQLL
For the molecule B1, in assay [2], the binding result is listed as “binds”.
